Laboratory results published in PubChem BioAssay AID1479 (National Center for Advancing Translational Sciences (NCATS), 2009).
About 820 (0.29%) of roughly 280,000 compounds were called active. Inconclusive means that the source gave no clear call. Such entries were picked first, then a sample of the others. The call rests on the fitted dose curve; in most records, active means well fitted curve in either direction with a large enough effect; inconclusive means small, poorly fitted or top-dose-only effect; inactive means flat fitted curve, though single readings scatter. No potency is given beside an inconclusive call; the fits are too rough.

Assay: Total Fluorescence Counterscreen for Inhibitors of the Interaction of Thyroid Hormone Receptor and Steroid Receptor Coregulator 2
Settings: TRb/SRC2 Texas Red total fluorescence interference; series mostly up to 106 µM; fluorescence change, negative = quenching: at the top concentration
In short: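 Human TRb ligand-binding domain at 0.6 uM with 20 nM Texas Red SRC2 peptide in Tris buffer containing 1 uM T3 and 5% DMSO, incubated with compound 5 h at ambient temperature. Total fluorescence (555/632 nm) calculated as parallel + 2 × perpendicular.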
On the % scale 0 is the no-effect control and ±100 the full control effect; potency means the concentration at half of the fitted maximal effect; tags describe the fitted curve by direction and shape or compound fluorescence and quenching.

Compound | fluorescence change, negative = quenching | Potency
COc1ccc2c(c1)C(=O)[C@H](OC(=O)NS(=O)(=O)c1ccc(C)cc1)[C@@H](c1ccc(OC)c(Br)c1)O2 | inactive: 0.935% | 
Cc1cc(O)c(-c2ccnc3cc(-c4ccccc4)nn23)cc1Cl |  | active: 11.2 µM [quencher]
CCOc1ccc(-n2c(=O)c3c(C)c(C)sc3n(Cc3cc(=O)n4cc(Cl)ccc4n3)c2=O)cc1 | inactive: -16.9% | 
O=C(NCCc1csc(-c2ccc(F)cc2)n1)c1c(F)cccc1Cl |  | active: 0.0002 µM [quencher]
CC(C)c1ccc(NC(=S)NN(c2ccccc2)c2ccccc2)cc1 | inactive: 1.32% | 
O=C(Nc1ccc(N2CCCC2)c(Cl)c1)c1ccccc1[N+](=O)[O-] |  | inconclusive [quencher, full curve]
O=C(COC(=O)Cc1ccsc1)Nc1ccc(Cl)c(S(=O)(=O)N2CCOCC2)c1 | inactive: -0.687% | 
CCOC(=O)c1c(S(=O)(=O)N2CCC(C(=O)Nc3ccc(OCC)cc3)CC2)c(C)n(C)c1C |  | inconclusive [falling, full curve, poor fit]
O=C(CSc1nccn1Cc1ccccc1)Nc1ccc2c(c1)OCO2 |  | inconclusive [quencher, full curve]
CCC(C)(C)NC(=O)Cn1c(=O)ccc2cc(S(=O)(=O)N3CCC(C)CC3)ccc21 |  | inconclusive [falling, full curve, poor fit]
COc1cc2c(cc1OC)[C@@H]1C(=O)c3ccc4c(c3O[C@@H]1CO2)C=CC(C)(C)O4 | inactive: -0.245% | 
O=C(Nc1ccc(F)cc1F)c1cnn(-c2ccc(F)cc2)c1-n1cccc1 | inactive: 0.454% | 
CCOc1ccc(NS(=O)(=O)c2ccc3[nH]cc(C(=O)NCc4ccccc4)c(=O)c3c2)cc1 | inactive: -1.73% | 
Cc1cccc(CNC(=O)c2ccc3c(c2)N(C)C(=O)C2CCCCN32)c1 (stereo unspecified) |  | inconclusive [quencher, full curve]
CNC1(c2nnnn2-c2ccccc2C)CCOC(C)(C)C1 (stereo unspecified) | inactive: -0.884% | 
COc1ccc(NS(=O)(=O)c2ccc3[nH]c(=O)ccc3c2)cc1OC | inactive: 1.36% | 
Cn1nc(C(=O)NC2CCCCCC2)ccc1=O | inactive: -1.47% | 
Cc1ccc(C)c(N2CCN(CCCNC(=O)c3cnn(-c4ccccc4)c3C3CCN(C(=O)OC(C)(C)C)CC3)CC2)c1 |  | inconclusive
CCN(CC)CCCNC(=O)c1cn(CC(C)C)c(=O)c2c1c1ccccc1n2C |  | inconclusive [falling, full curve, poor fit]
Cc1cccc(-c2noc(-c3ccccc3OCC(=O)Nc3ccccc3[N+](=O)[O-])n2)c1 | inactive: -1.63% | 
COCCNC(=O)c1nn(-c2ccc(C)cc2)c(=O)n(C)c1=O |  | inconclusive [falling, partial curve, poor fit]
